# Out of some 340,000 compounds screened, about 6,900 (2%) were called active. Rule as the data show it: active = inhibition above about 30%; inactive = below that, where a call was filed. Only a part is listed here, and it is no random draw. The source gives no active or inactive call for entries shown without one.
# Biological target: D(2) dopamine receptor (Homo sapiens) (UniProt P14416)
# Experiment: HTS Assay for Allosteric Antagonists of the Human D2 Dopamine Receptor: Primary Screen for Antagonists; also: 0% is about no effect
# Conditions: HEK293 TREx D2 cells, calcium flux, dopamine EC80; at 10 µM; stronger effect = higher value
# How it was run: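 HEK293 T-REx D2 cells, tet-induced, calcium dye no-wash. Cpd pintool add, 180 s kinetic, then EC80 DA, 180 s kinetic. Ca flux read.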
# Sequence of UniProt P14416 (P14416 whole entry, looked up): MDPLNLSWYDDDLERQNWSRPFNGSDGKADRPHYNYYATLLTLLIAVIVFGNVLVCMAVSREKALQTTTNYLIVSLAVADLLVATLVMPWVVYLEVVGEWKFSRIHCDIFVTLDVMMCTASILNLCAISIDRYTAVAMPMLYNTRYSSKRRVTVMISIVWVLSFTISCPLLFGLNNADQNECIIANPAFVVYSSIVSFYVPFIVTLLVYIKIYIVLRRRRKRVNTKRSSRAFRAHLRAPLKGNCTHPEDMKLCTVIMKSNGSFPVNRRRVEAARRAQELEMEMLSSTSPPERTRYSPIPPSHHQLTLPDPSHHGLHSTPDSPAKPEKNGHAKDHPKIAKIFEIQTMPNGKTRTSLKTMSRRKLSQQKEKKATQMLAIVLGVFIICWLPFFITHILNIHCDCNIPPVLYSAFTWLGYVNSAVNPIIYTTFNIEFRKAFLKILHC
row,Structure (SMILES),inhibition
1,Cc1cccc(NC(=S)N(CCCN2CCOCC2)C(C)c2cc3ccccc3o2)c1 (stereo not drawn),active: 35.4%
2,COc1ccc(-c2noc(N3CCC(C(=O)Nc4ccc(C)c(F)c4)CC3)n2)cc1OC,5.8%
3,Cc1ccccc1NC(=O)c1c(O)c2cccc3c2n(c1=O)CCC3,active: 46.5%
4,O=C(c1ccc2c(c1)N(Cc1ccc(F)cc1)C(=O)c1ccccc1S2(=O)=O)N1CCC(Cc2ccccc2)CC1,16.5%
5,COc1ccc(-n2ccn(Cc3ccc(C)cc3)c(=O)c2=O)cc1OC,4.84%
6,O=C(CSc1ccc2ccccc2n1)Nc1nsc(-c2ccc(Cl)cc2)n1,2.02%
7,CCN1CCN(c2nc(N(C)c3ccccc3)nc(N)c2[N+](=O)[O-])CC1,active: 49.5%
8,O=C(CN1CCN(c2ccc(O)cc2)CC1)N1CCc2ccccc21,active: 39.6%
9,COc1ccc(NC(=O)CN(C)S(=O)(=O)c2ccc3[nH]c4c(c3c2)CCCC4)cc1Cl,-1.41%
10,CC(=O)N1c2nc(-c3ccco3)nn2C2(CCCCC2)[C@@H]2CCCC[C@@H]21,19.1%
11,COc1ccc(Cn2c(SCc3ccc(C(=O)NCc4ccccc4F)cc3)nc3cccnc32)cc1,2.91%
12,Cc1cccc(-n2c(=O)c3c(c4cc(C)ccc4n3C)n(Cc3ccccc3F)c2=O)c1,6.47%
13,CC1=C(C(=O)OCC2CCCCC2)C(c2c(F)cccc2Cl)CC(=O)N1 (stereo not drawn),10.7%
14,COc1cc(OC)c(NC(=O)Nc2ccccc2OCc2cc(=O)n3cc(C)ccc3n2)cc1Cl,19.6%
15,CCc1ccc(S(=O)(=O)c2nnn3c2nc(NC2CCCC2)c2sccc23)cc1,2.39%
16,COc1ccc(C)cc1NC(=O)CCS(=O)(=O)c1ccc2c(c1)CC(=O)N2C,18%
17,COc1ccc(CCNC(=O)CCc2c(C)nc3nc(C)nn3c2C)cc1OC,-9.92%
18,CCOC(=O)c1sc(NC(=O)COc2ccccc2Cl)c(C(=O)OCC)c1C,0.875%
19,O=C(Nc1ccc(O)c(-c2nc3ccccc3o2)c1)c1ccco1,6.98%
20,Cc1ccccc1NC(=O)CSc1nc2c(oc3ccccc32)c(=O)n1-c1ccccc1F,-2.2%
21,COc1ccc(C(=O)/C=C/Nc2ccc([N+](=O)[O-])cc2C)cc1OC,active: 40%
22,CC1CCc2sc(C(=O)NC3CCN(Cc4ccccc4)CC3)cc2C1 (stereo not drawn),active: 83.4%
23,CC1CCN(C(=O)c2cc(-c3ccc(Cl)cc3)on2)CC1,11.5%
24,COc1ccccc1OCc1ccc(C(=O)N2CCN(C(=O)c3ccco3)CC2)cc1,active: 35.4%

row,Structure (SMILES),inhibition
1,COc1cc(C(=O)Nc2ccc(OCc3cc(=O)n4cc(C)sc4n3)cc2)cc(OC)c1OC,12.9%
2,O=C(NCCc1ccccc1)c1c[nH]c2ccc(S(=O)(=O)Nc3ccccc3F)cc2c1=O,0.282%
3,COc1ccc(NC(=O)Nc2nnc(N(C)C3CCCCC3)s2)c(OC)c1,18.5%
4,O=C(CSc1nc2c(c(=O)[nH]1)CN(Cc1ccc3c(c1)OCO3)CC2)Nc1ccc(F)cc1,1.35%
5,CCCOc1cccc(C(=O)Nc2ccc(-c3nc4ccccc4o3)cc2)c1,-8.68%
6,COc1cc(OC)cc(-n2c(=O)c3ccccc3n(CC(=O)NCCc3ccc(OC)c(OC)c3)c2=O)c1,-13%
7,COc1ccc2cc(CNc3ccc(OC)c(OC)c3)c(=O)n(CC(=O)Nc3ccc(C)cc3)c2c1,-11.8%
8,N#Cc1ccc(CSc2ccc(S(=O)(=O)N3CCCC3)cn2)cc1,active: 30%
9,CCCNC(=O)CN1C(=O)c2cccnc2Sc2ccccc21,-5.25%
10,Cc1cccc(NC(=O)CSc2nc(C)c(Cc3ccccc3)c(=O)[nH]2)c1,28.4%
11,COc1ccc(-c2nc(CNS(=O)(=O)c3ccc(F)cc3)cs2)cc1,4.06%
12,Cc1ccc(C)c(N2CCN(C(=O)c3c4c(nc5ccccc35)C(=O)N(C3CCCCC3)C4)CC2)c1,-10.9%
13,COc1ccccc1N1CCN(C(=O)c2c3c(nc4ccccc24)C(=O)N(C2CCCCC2)C3)CC1,-8.1%
14,O=C(Cn1cc(S(=O)(=O)Cc2ccc(F)cc2)c2ccccc21)NCc1ccccc1,4.56%
15,COc1ccccc1CCNC(=O)c1cccn1-c1nnc(N2CCCCC2)s1,4.33%
16,CCOc1ccccc1NC(=O)CSc1cc(=O)n(CC)c2ccccc12,-4.57%
17,CCOc1ccc(-c2cc(C(F)(F)F)c(C#N)c(SCC(=O)Nc3ccccc3)n2)cc1,-2.23%
18,CC(=O)c1cc(-c2ccccc2)n(CCC(=O)Nc2cc(C)cc(C)c2)c1C,-7.22%
19,CCc1ccc(NC(=O)c2ccc(CN3C(=O)C(C)=C(c4ccc(C)cc4)S3(=O)=O)cc2)cc1,15.5%
20,COc1ccc(-c2onc(C)c2C)cc1S(=O)(=O)N1CCC(C)CC1,3.83%
21,Cn1c(C(=O)NCc2cccc(F)c2)cc2cc(S(=O)(=O)N3CCCCC3)ccc21,8.55%
22,COc1cccc(-c2nc(C(N)=O)c3c(n2)n(-c2ccc4c(c2)OCO4)c(=O)n3C)c1OC,-27.6%
23,CSc1nc2c([nH]c3ccccc32)c(=O)n1-c1ccc(F)cc1,1.06%
24,Cc1ccc(-n2ncc3c(NCCC4=CCCCC4)ncnc32)cc1C,26.6%

row,Structure (SMILES),inhibition
1,O=C(CNS(=O)(=O)c1ccc(Br)s1)N1CCN(c2ccccc2F)CC1,5.13%
2,Cc1nn(CC(=O)N2CCN(c3ccccc3)CC2)c(=O)c2cccn12,3.1%
3,CCc1nn(CC(=O)NCc2cccc(OC)c2)c(=O)c2cc3cc(F)ccc3n12,0.321%
4,COc1cccc(OC)c1C(=O)Nc1ccc2c(c1)CCCN2S(=O)(=O)c1ccc(C)cc1,-2.71%
5,Cc1ccc(-c2nc3c(cnn3-c3ccccc3)c(=O)n2-c2ccc(Cl)cc2)cc1,-9.9%
6,Cc1ccc(CSc2nc3ccc(NC(=O)COc4ccccc4F)cc3s2)cc1,-3.83%
7,O=C(CCCCn1c(=O)[nH]c2ccsc2c1=O)N1CCN(c2cccc(Cl)c2)CC1,-15.1%
8,CCN(CC)CCCNC(=O)Cn1c(-c2cccs2)cc2cc(Cl)ccc21,7.51%
9,CCCCN(CCCC)S(=O)(=O)c1ccc2oc(C(=O)NCc3ccccc3)c(C)c2c1,11.5%
10,CCOC(=O)c1c(C)oc2c(Cl)cc(NS(=O)(=O)c3ccc(Cl)c(C)c3)cc12,-25.1%
11,Cc1cc(C)c(/C=C/c2onc(C)c2S(=O)(=O)N2CCC(C(=O)NCc3ccco3)CC2)c(C)c1,6.31%
12,O=C(CN1C(=O)C2(SCC(=O)N2c2cccc(Cl)c2)c2ccccc21)NC1CCCCC1 (stereo not drawn),6.87%
13,CCOC(=O)N1CCN(C(=O)CN(c2ccc(C)cc2C)S(=O)(=O)c2ccccc2)CC1,-1.28%
14,CCOC(=O)c1c(C)[nH]c(C)c1S(=O)(=O)N(C)CC(=O)N1CCN(c2ccccc2OC)CC1,7.35%
15,COc1ccc(NC(=O)Cn2cc(C(=O)C3CC3)c3ccccc32)cc1,1.82%
16,COC(=O)c1cc(NC(=O)CN(c2ccccc2)S(=O)(=O)N(C)C)ccc1Cl,6.41%
17,NS(=O)(=O)c1ccc(CCNc2nc3c(-c4cccc(F)c4)nnn3c3ccc(Cl)cc23)cc1,-5.98%
18,CCOc1ccccc1NC(=O)Cn1nnc2sc3c(c2c1=O)CCC(C(C)(C)C)C3 (stereo not drawn),-5.27%
19,COc1ccc(C(=O)N2CCCCC2CCN2CCCCC2)cc1 (stereo not drawn),-14.8%
20,O=S(=O)(c1cccs1)N1CCN(c2ccc(Cl)cc2)CC1,-3.67%
21,CCC(CC)C(=O)Nc1ccccc1C(=O)OCc1cc(=O)n2nc(C3CCCCC3)sc2n1,14.9%
22,COc1ccc(Cl)cc1N(C)C(=O)Cn1cnc2sc(C)c(S(=O)(=O)N3CCN(c4ncccn4)CC3)c2c1=O,0.724%
23,Cc1ccc(C)c(CN2C(=O)c3ccccc3S(=O)(=O)c3ccc(C(=O)N4CCOCC4)cc32)c1,-7.8%
24,CCOc1ccc(CNC(=O)Cn2ncc3c(=O)oc4ccc(C)cc4c32)cc1,-25.7%

row,Structure (SMILES),inhibition
1,Cc1ccc(CNC(=O)C2CCN(S(=O)(=O)c3ccc4c(c3)oc(=O)n4C)CC2)cc1,23.4%
2,Cc1cc(C)cc(NC(=O)CSc2nc3nc(C)cc(C)c3c(=O)[nH]2)c1,active: 34.6%
3,CCc1ccc(-n2nc(C)c3c(C)cc(=O)n(CC(=O)Nc4ccc(OC)c(OC)c4)c32)cc1,-1.92%
4,CCOC(=O)c1c(C)[nH]c(C)c1S(=O)(=O)N1CCCC(C(=O)N2CCN(c3cc(C)ccc3C)CC2)C1 (stereo not drawn),10.3%
5,Cc1ccc(-c2cc(C(F)(F)F)n3nc(C(=O)Nc4ccc(C#N)cc4)cc3n2)cc1,7.17%
6,CCCCC(=O)Nc1nc2c(s1)COc1ccccc1-2,active: 52.4%
7,CCOc1ccccc1CNC(=O)CCCN1C(=O)CCn2nc(-c3cccn3C)cc21,-8.21%
8,Cc1cc(NC(=O)C2CCCN(S(=O)(=O)c3cccc4nonc34)C2)ccc1Br (stereo not drawn),-13.3%
9,COc1ccc(OC)c(CNCc2c(C(=O)O)n(Cc3ccccc3)c3cc(OC)ccc23)c1,6.4%
10,O=C1Nc2ccccc2Oc2cc(Oc3ccc(Cl)cc3)ccc21,-19.2%
11,O=C(CN1N=C(c2ccc(Cl)cc2)CCC1=O)NCc1ccc(F)cc1,-14.4%
12,CCC(=O)N1CCc2cc(S(=O)(=O)NC(CC(C)C)C(=O)Nc3ccc(CC)cc3)ccc21 (stereo not drawn),-7.88%
13,CCc1cccc(C)c1NC(=O)c1cnn(-c2ccc(F)cc2)c1-n1cccc1,17%
14,CSc1nn(Cc2cccc(F)c2)c(N(C(C)=O)C(C)=O)c1S(=O)(=O)c1ccccc1,7.91%
15,Cc1cccc2sc(N3CCN(C(=O)c4ccco4)CC3)nc12,-8.76%
16,Cc1cccc(S(=O)(=O)c2cn(Cc3ccccc3)c3cc(N4CCCC(C)C4)c(F)cc3c2=O)c1 (stereo not drawn),14.2%
17,CCOc1ccc(S(=O)(=O)Nc2ccc(-c3ccc(N4CCCC4)nn3)cc2)cc1,1.52%
18,COc1ccccc1CNC(=O)C(=O)NCC(c1ccc2c(c1)OCO2)N1CCOCC1 (stereo not drawn),-2.9%
19,CCc1ccc(-c2nc(SCC(=O)NCCOC)c(-c3ccc(C)cc3)[nH]2)cc1,-2.49%
20,CCc1ccc(CNc2nc3nc(C)c(Cc4ccccc4)c(=O)n3[nH]2)cc1,-3.11%
21,CCc1ccc(CN2CCc3nc(Nc4ccc5c(c4)OCCO5)ncc3C2)cc1,7.23%
